# Measurements: the supplement of paper PMC11417369
# ± gives the standard deviation of the averaged measurements. This is one part of the list.
# Tested on: PfAP2-I AP2 domain 3 (GST-tagged)
# Assay: gcPBM binding intensity (ln(normalized median fluorescence intensity)); higher = stronger DNA binding
# Procedure, shortened: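 Binding intensity is the highest Masliner-normalised natural-log median intensity over replicate spots in either probe orientation. To obtain it, GST-tagged P. falciparum DNA-binding domains made in E. coli were incubated for 1 h on an Agilent 4 × 180k array of primer-extended double-stranded 36-bp intergenic genomic probes plus negative controls. Detection used Alexa488 anti-GST antibody with scanning at 488 nm.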
row,Sequence,gcPBM binding intensity (ln)
1,TTTTTTTTTTTTTAAACATGCATATTAATATTATAT [TGCATGCA_site820],7.99 ± 0.64
2,AAAGGCTATCTTATATACTCCTAAAACGCGAACGTA [CACACA_negctrl_site396],7.45 ± 0.64
3,AATATATAAATATTGTGTACTTATTTTTTTATATGT [XGTACX_site4377],7.935 ± 0.049
4,ATAAATTCTATGTATACACACATATAAAATATAGAT [CACACA_site7296],7.91 ± 0.49
5,ATTATATACATATATGCACACAAAAAAATATATATT [CACACA_site8508],9.04 ± 0.12
6,TTTTTTGTTATTAAAAGTACATTATATGCTAGTTAA [XGTACX_site8747],7.79 ± 0.29
7,TTAAAAATATTATGTACACACATTTGAGATATTTGT [CACACA_site6953],7.72 ± 0.59
8,TGAAATAAAATTTATACACACTTGCTAAATGATCAT [CACACA_site4265],7.68 ± 0.62
9,TATCATTAATTTACATGTACATAAATGAATGTTTAT [XGTACX_site5608],7.59 ± 0.38
10,TTCGTAATTTATATCACACACATATATCTATAATAA [CACACA_site7458],8.01 ± 0.53
11,TTATTGCATATTTACACACGTACTAATTTAAACAAG [CACACA_site971],8.79 ± 0.38
12,AGAATATTTAAAAAAGGTACACAAAAACCAAAATAA [XGTACX_site8569],8.09 ± 0.6
13,ATATATGACAAATGTAGTACAAATTATTGTATCATA [XGTACX_site3675],7.67 ± 0.43
14,TATTAATACAGACACACACACACACCCAATAAAATA [CACACA_site243],8.18 ± 0.2
15,ATAAATTCATATATGAGTACTAAAAATATCTTTTTC [XGTACX_site5541],7.61 ± 0.45
16,CAATGGTCATTTAGTTGTACTTAATTTTAAATCAAA [XGTACX_site4075],7.64 ± 0.26
17,AAAAAAAACGAACACACACACATTCAATATAAAACA [CACACA_site6170],7.8 ± 0.52
18,GTAAGCACACATAGTTGTACATTAATAAAAATAAAT [XGTACX_site5876],7.89 ± 0.34
19,ATATGTATGAAGTGTACACATATATTGTATTTTCTT [CACACA_site5503],7.96 ± 0.45
20,TTCCTATAAAAAAACACACACATATAAATATATATA [CACACA_site2318],7.76 ± 0.72
21,TACAATTTAATATATACACACAAATAAATTATGCTT [CACACA_site856],7.49 ± 0.45
22,AACAATTTATATAAAGCACACATGGGAAGGAAATAC [CACACA_site1712],9.78 ± 0.16
23,AAATAAATGTTATGCATACACACTTTATACCTATTT [CACACA_site3779],8.02 ± 0.91

row,Sequence,gcPBM binding intensity (ln)
1,TCTTTTATGTTTGTTTTTCCCTTTTTTTATGTTCCC [CACACA_negctrl_site1722],7.72 ± 0.7
2,ATATATATTAGGTATTGTACTTATATGCATATAAGT [XGTACX_site2700],8.07 ± 0.43
3,AATGAATGAATTATTTTGCGCTTATTATAGGACGAA [XGTACX_negctrl_site218],8.23 ± 0.28
4,CACAAAAAGAAACACACACACATATATATTTATTAT [CACACA_site3646],7.68 ± 0.61
5,TATATATATATTTATACACACATTAGTGTATACATG [CACACA_site2950],8.925 ± 0.064
6,AAGTAATTTATGCATACACACATATATAAATATGTA [CACACA_site7813],8.02 ± 0.55
7,ATATATATAAAACACACACACACATGTTTTAAAACT [CACACA_site78],8.31 ± 0.55
8,AAAAACTATTGTAGGACACACAAAATTCCAATTTTA [CACACA_site1701],7.63 ± 0.39
9,ATATATTAAAACCTAGTGCATTTGTACATATTTCAA,9.63 ± 0.099
10,TTATACAGGACAATAGTGCACATAAATATATGTATA,11.2 ± 0.51
11,GCAGTCAAAAAGGAAAATATAAAAAAAGTATATGTG [GTGCAC_negctrl_site95],7.57 ± 0.61
12,AGGTTAAAACATATATATATATATATATATATATAT [XGTACX_negctrl_site333],9.22 ± 0.49
13,TATATATATATATACACACACACCGTCCGTGTTAAA [CACACA_site2979],9.66 ± 0.16
14,ACATAATAAAAAAAACGTACAAATAGGTTTTTCATA [XGTACX_site6645],7.87 ± 0.071
15,GACTATTTTAATATTTTACACACCATGTAAAATATA [CACACA_site9050],8.18 ± 0.69
16,TTTTTTTATTATTAAAGTACTAAAAAATGAAAACTG [XGTACX_site6758],7.91 ± 0.21
17,TGGGAATAAAAACACACACACACACCGATATATATA [CACACA_site5875],8.51 ± 0.69
18,TATAATAAAAAATGTACACACATAAGAAAATTTAAT [CACACA_site2901],7.99 ± 0.66
19,TAAATACTTATATGTACACACATATAGATATATATT [CACACA_site2553],7.62 ± 0.4
20,ATATAAATAAATGTATGTACATATATTTATATGCAT [XGTACX_site4185],7.74 ± 0.46
21,CACAGACACGGACACACACACACACCGATATATATA [CACACA_site4353],8.44 ± 0.71
22,ATTTTTTAAAATATTTGTACATATATAATGCATATA [XGTACX_site7026],8.17 ± 0.17
23,ATATATATATATATATGTACATATATTTGTAATGTC [XGTACX_site8074],9.35 ± 0.4

row,Sequence,gcPBM binding intensity (ln)
1,TTTATTATGTAAGCATGTACATGATGTATATATTTA [XGTACX_site5021],7.74 ± 0.36
2,ATCTGTACAGTTTTTGCACACATATAAATAAAAAAA [CACACA_site9198],9.77 ± 0.3
3,TATTTACAAATAAAAAGTACATAAACTAATATCTTT [XGTACX_site2181],7.76 ± 0.35
4,TATATTAGAAAGGATACACACATATATAAATATCTA [CACACA_site6411],7.36 ± 0.57
5,TTGTTTGTAAACAGATGTACATATAAAAATATATAT [XGTACX_site3370],8.01 ± 0.24
6,TATGAACACCCAAATACACACACTCAAAAAAAAAAA [CACACA_site5466],8.15 ± 0.52
7,AAAATGTTTTTATCCAGTACATAAATATATATATAT [XGTACX_site7398],9.15 ± 0.26
8,TCAGATCCATAGAAGGTGCAAATAACAAAAATACAA [GTGCAC_site9610],11 ± 0.43
9,TAATTTTTCTTATATAGTACACAAAAAGAAAATTAC [XGTACX_site6393],8.03 ± 0.18
10,TTCCCTATATAGAGCATGCACTATATTCAAATGATG,8.49 ± 0.61
11,TTAGATATAAAAGCATGTACTTGTATAAAATATATA [XGTACX_site8272],7.6 ± 0.47
12,TTATCAAATGAGTGTTGTACGTCTTTTGAAATACCA [XGTACX_site8804],7.89 ± 0.38
13,GAAAAATTGAATTTGGGTACATATAAATATTATATT [XGTACX_site2363],7.46 ± 0.64
14,ATAAATATTAGCAGTTGTACAATAAATATATGTAAT [XGTACX_site2534],7.91 ± 0.5
15,CATTTTATTTTCTTTGTGCACAAAAATATTTTTTCT,11.13 ± 0.092
16,TTGTAACAAAAGTACACACACATTTCTATAAATTTT [CACACA_site2772],7.91 ± 0.33
17,TTTATATACTATCAACGTACAAAAGTAATAAAAATA [XGTACX_site4343],7.68 ± 0.39
18,GGATTTTACCATAGCACACATATATGAATATTTTTC [CACACA_site1814],8.14 ± 0.71
19,TGTTCTAATTTTAATTGTACATATATACATATATAT [XGTACX_site7290],7.67 ± 0.3
20,AAAGTTATGATATATACACACATATAAATATTAAAT [CACACA_site6361],7.82 ± 0.64
21,GTAAATATATATATATATATATATATATATATATAT [GTGCAC_negctrl_site239],9.45 ± 0.35
22,AACATATAAAAATATGCACACACAGGAATACAAACA [CACACA_site8127],8.79 ± 0.61
23,TTCTGTATACGGTGTGCACACAATTAAAAAAAAAAA [CACACA_site1416],9.735 ± 0.007

row,Sequence,gcPBM binding intensity (ln)
1,TTAAATAACCTCAAGGATAAGAAAAAATTAAAAATT [CACACA_negctrl_site1336],7.5 ± 0.84
2,GAAATAATAAAATCGACACACAAAAAAAAAAAAAAA [CACACA_site3476],8.2 ± 0.54
3,CTATTTAAAATTTGAACACACATTATTTATTTTAAA [CACACA_site3114],7.62 ± 0.45
4,CTTTATATATATTGCGTGCACATTTTTTTTTTTTTT,10.1 ± 0.59
5,TCAATATATATAAGAAGTACATGTGAATGAAAAAAA [XGTACX_site1674],8.11 ± 0.57
6,AATAAATACAAAAATGTACACACATATATATATTTT [CACACA_site9167],7.88 ± 0.19
7,AAAAAAAAAAAACATACACACACACTAATATTTATA [CACACA_site8038],7.58 ± 0.29
8,GACTTTTTCATTTTTAGTACACATATATATTTCCCT [XGTACX_site3511],8.62 ± 0.52
9,ATATATTTTTAATATGCACACAAGAATACATTCACA [CACACA_site914],9.195 ± 0.007
10,TTAAAAAATCACAACACACACACACCCAAAAAAAAA [CACACA_site1445],8.43 ± 0.29
11,TTTTAAAAAATATAATAATATAAATATTTTATACGT [TGCATGCA_negctrl_site252],7.29 ± 0.4
12,CATATATATATATGAACACACAAAAAGAATATTTCC [CACACA_site1493],7.62 ± 0.63
13,TTCTATGCATTTATAGTGCATGTAAAATATAAGATA [GTGCAC_site9466],10.2
14,AATTATATTTAGTATATGCACACTTTATGTTTGTTA [CACACA_site2025],9.21 ± 0.028
15,GTAGAAAGAAAAATTAGTACTTAAATATTATAAAAA [XGTACX_site8458],7.71 ± 0.62
16,TCTATACCTATTCTTACACACATATGTATTTATATA [CACACA_site4475],8.08 ± 0.72
17,TTTAAAAAAAAAAAAAATTTTTTTTTTTTTTTTTTA [CACACA_negctrl_site1415],7.33 ± 0.45
18,AAAAAATACCAAAGGGGTACTTACACATAATACTTA [XGTACX_site2111],7.55 ± 0.58
19,CTTTTTACTTAATACACACACACACCCAAAAAAAAA [CACACA_site948],8.53 ± 0.15
20,CATCAAAATGAAGCATGTACATAATATAAATAAATA [XGTACX_site4647],7.79 ± 0.45
21,ATTGAAGGGAAATATATAATCATATTCAAAATAAAA [CACACA_negctrl_site728],7.55 ± 0.79
